Laboratory results as given in PubChem BioAssay AID463173 (ICCB-Longwood Screening Facility, Harvard Medical School, 2010).
About 1,700 (3.3%) of roughly 52,000 compounds were called active. Cut-off read from the data, not from the text of the source: active = survival mostly below about 52% (no sharp cut-off); inactive = mostly above about 56%. Some of the results follow.

What follows are compounds tested on Wild type (assay: growth inhibition of S. aureus wild type versus tarO mutant, primary screen, teichoic acid synthesis inhibitors, RN4220, OD600 (AID 463173)). Settings: S. aureus RN4220 wild type/DeltatarO growth, OD600, 18 h, stronger effect = lower value, screened at 18.75 µg/mL (by protocol).

SMILES	survival
COc1ccc(CNC(=O)CN2C(=O)COc3ccc(S(=O)(=O)N4CCCCC4)cc32)cc1	inactive: 96%
Cc1cc(F)ccc1NC(=O)Cn1nc(N2CCN(c3ccccc3)CC2)ccc1=O	inactive: 87%
Cc1nc2ccccc2n1C(=O)N(C)C	inactive: 116%
CC1CCN(C(=O)COc2ccccc2Cl)CC1	inactive: 94%
O=C(Cn1cc(SCc2ccc(F)cc2)c2ccccc21)N1CCCCC1	inactive: 87%
Cc1ccc(Cn2c(C)c3cnn(CC(=O)O)c(=O)c3c2C)cc1	inactive: 77%
CCCSc1oc(-c2cccs2)nc1S(=O)(=O)c1ccc(C)cc1	inactive: 39%
O=C(Nc1cccc(C(=O)OCc2cc(=O)n3c4c(sc3n2)CCCC4)c1)c1ccc(Cl)cc1	inactive: 74%
COc1ccc(NC(=O)Cn2c(=O)n(CCCCCC(=O)NCc3ccc4c(c3)OCO4)c(=O)c3sccc32)cc1Cl	inactive: 89%
COc1ccc2c(c1)c(CC(=O)Nc1cc(C)cc(C)c1)c(C)n2C(=O)c1ccc(Cl)cc1	inactive: 78%
CCN1C(=O)C2C(c3ccc(OC)cc3)NC(CC)(C(=O)OC)C2C1=O (stereo not given)	inactive: 96%
O=C(NCc1ccccc1)c1cnc2sc(N3CCCC3)nn2c1=O	inactive: 73%
COc1ccc(C)cc1NC(=O)c1sc2nc(-c3ccc(F)cc3)cn2c1C	inactive: 80%
CCN(CC)C(=O)c1sc2c(c1C)c(=O)n(Cc1ccccc1)c(=O)n2Cc1cc(C)ccc1C	inactive: 45%
CC(c1nnnn1CCc1ccccc1)N1CCN(c2cccc(C(F)(F)F)c2)CC1 (stereo not given)	inactive: 135%
CCS(=O)(=O)N1CCN(CC2CC3C=CC2C3)CC1 (stereo not given)	inactive: 109%
Cc1cc2c(cc1S(=O)(=O)C(C)CC(=O)NC1CCC(C)CC1)OCC(=O)N2 (stereo not given)	inactive: 69%
CCC(CC)NCc1ccc(OC)c(C)c1OC	inactive: 107%
Cc1cc(C)c2oc(C(=O)Nc3ccc(S(=O)(=O)Nc4ncccn4)cc3)cc(=O)c2c1	inactive: 87%
O=C(CCCn1ncn2c(cc3occc32)c1=O)NCc1ccccc1F	inactive: 88%
COc1ccccc1NC(=O)c1sc(-c2ccc(Cl)cc2)cc1N	inactive: 129%
CCc1ccc2c(c1)NC(c1ccc(F)cc1)=NC(c1ccncc1)=N2	inactive: 104%
O=C(Nc1ccccc1C(F)(F)F)c1cc2nc(-c3ccccc3)cc(-c3ccccc3)n2n1	inactive: 67%
CCc1ccc(OC(=O)CSc2nnc(-c3ccc(OC)c(OC)c3)o2)cc1	inactive: 89%
O=C(NCCc1ccccc1)c1ccc2c(c1)N(Cc1ccc(F)cc1Cl)C(=O)CS2	inactive: 67%
